{"source": "paper PMC12136788", "binders": {"B1": {"name": "chr11:116399779:116399780:-_ENSMUSG00000020802_ENSMUST00000082152|mus_hu|FALSE|FALSE (ssRNA)", "RNA": "GGGAGUUCUACAGUCCGACGAUCCGUCACCCGGAACCUAGCCUGGUCCCAACCUCUCUUAGAGAGCAAGUUCAACAGGCCUGAGGGCUAUAACGUGGUCGACAGGCCAUGUAUAGCCGGGAGUCAGUGACAGCAGCUACAACUCAACAGAGGAUUGAGCAUCA"}, "B2": {"name": "chr7:148047826:148047827:+_ENSMUSG00000025485_ENSMUST00000026558|mus_mus|motif|central (ssRNA)", "RNA": "GGGAGUUCUACAGUCCGACGAUCCCCCAUGGGUUGGAUGACUCUGUGCCUGGAGAGCUUGUCAAACAUGUUCACGGGCUUCAUGGCCUCAUGUUCCUUCUGCUCCUCUGUCAUGCCUUCCAUAGGAUUAGGCGGCUUCUCCUCCAACAGAGGAUUGAGCAUCA"}, "B3": {"name": "chr2:32339754:32339755:+_ENSG00000021574_ENST00000315285|hu_mus|FALSE|FALSE (ssRNA)", "RNA": "GGGAGUUCUACAGUCCGACGAUCACCGGAGAGCCCUGCGGAGCCACUUUUCAGGACAGUUUUUGAUCGAGGCAAUGAAUUACUAGCAUGUGUUAAGGGGUCUUUCCUCUUCGGAACUGCUCCACUUUCUGACUGGAGAUGUCCCAACAGAGGAUUGAGCAUCA"}, "B4": {"name": "64331861_64335390_557_CDS_ENSG00000197329_ENST00000358912|human|control|control (ssRNA)", "RNA": "GGGAGUUCUACAGUCCGACGAUCAUGCACAGUGCUGGGCUUCACCCCAUUUGCCUUAGGUCUUUUAAACAAAGCAAACCUACUUUUCCUCCUUCCUCUAUCGCCAUUUGGGAGAGACCCAUUAUACCCUAAGACAAUGAGUUCCAACAGAGGAUUGAGCAUCA"}, "B5": {"name": "chr9:74905015:74905016:+_ENSMUSG00000007656_ENSMUST00000169492|mus_hu|FALSE|FALSE (ssRNA)", "RNA": "GGGAGUUCUACAGUCCGACGAUCUGUGUUUGAAAUAUGUGACCUUUCUUCUAACUUGUGGUCUUAAACUUCUGUUUUACAAAAUCCAAAAGGUAAAUACAGAAGAAAUCAAUACAAUAGAGAUUAUAUUAAAUAAGAGUAACACAACAGAGGAUUGAGCAUCA"}, "B6": {"name": "chr1:225611761:225611762:-_ENSG00000143815_ENST00000272163|hu_mus|hu_hu_hu_mus_True|48_108 (ssRNA)", "RNA": "GGGAGUUCUACAGUCCGACGAUCCCAGGCCAUCGACCUCUGACCACUUCACCCUCAACAAACUUCCUACUUGGCAUUUUCUAAAAUUAACCUGCGCGCGCUCCGGCGGGAACUCCAGCCACUCCAGGACAGUCACCAGCAGCCCAACAGAGGAUUGAGCAUCA"}, "B7": {"name": "chr2:216981417:216981418:+_ENSG00000079246_ENST00000392132|hu_hu|hu_hu_hu_mus_True|8_38 (ssRNA)", "RNA": "GGGAGUUCUACAGUCCGACGAUCCUGAUACUGGUCCUUGCCAGCAAGGGCAUUAUCAGUGCCAUCUGUGCCAUAGAGGACUAACGCAAUCUCAUCUUUGUUCUCAGAAAAUACCUGUCGUUGGACAAACAUGGUUAUCACUUUCAACAGAGGAUUGAGCAUCA"}, "B8": {"name": "chr7:54825262:54825263:-_ENSG00000132432_ENST00000352861|hu_hu|hu_hu_hu_mus_False|68_98 (ssRNA)", "RNA": "GGGAGUUCUACAGUCCGACGAUCCUGCCGGCUGGGCACAAACUGCAGCAUUACCUGAUCCAUGUUUUACCCAACCGGGAUUGAGAGCGUAGAGACACGUAGCUCAGGAGAGAACCGAGCCCAACGGAACCGGAAGCUGGCAACCAACAGAGGAUUGAGCAUCA"}, "B9": {"name": "chr3:58389919:58389920:+_ENSMUSG00000075700_ENSMUST00000107924|mus_mus|motif|central (ssRNA)", "RNA": "GGGAGUUCUACAGUCCGACGAUCGCUAGGAGCUUGCAUGCCGAAAAAAGCAAAAGGAUCUUUGCCAACAAUUAUUAAGCCGGUUAAUACUAGUUUGAAGACUGACAGGAAAGAUGCUAUGUGUCUAUAAAUUGGUUGAGGGAGCAACAGAGGAUUGAGCAUCA"}, "B10": {"name": "chr16:57283700:57283701:+_ENSG00000102931_ENST00000219204|hu_mus|FALSE|FALSE (ssRNA)", "RNA": "GGGAGUUCUACAGUCCGACGAUCGGUUGUGAAGGCCGCCAUGUUGAAGCCUGGGAUACGCUCCAGCAACUGCUCUUCAAUGUACUUCUCUACCAGGGAGAUAUAUUCAUUAAAAAUGGGUGUAUAGGUGAGUUUAUUCUCUUCCAACAGAGGAUUGAGCAUCA"}, "B11": {"name": "chr2:48026839:48026840:+_ENSG00000116062_ENST00000540021|hu_hu|hu_hu_hu_mus_False|38_48 (ssRNA)", "RNA": "GGGAGUUCUACAGUCCGACGAUCAUAGUGAGCCACUAGCGUCCUAAAUCUGGAACAGUGGCGGUCAUCCGAAAACUGGCCGAUGAAAAACUUUCCCAGUGAAGUAUCCACAAAGCAAACACCAUACACACGAGUGUGACCAGACAACAGAGGAUUGAGCAUCA"}, "B12": {"name": "chr1:90180218:90180219:+_ENSG00000171488_ENST00000370454|hu_mus|FALSE|FALSE (ssRNA)", "RNA": "GGGAGUUCUACAGUCCGACGAUCACAAGUGAUGGAAAAAUACUGUAAACUUUGCAGAACUCCGAUUUCGGGCGGGAUGAAGCGGAUGUCGUUAUAGGACAAGUCCAGGUAUCUGAUUUUGUUGCACAGGAAGAGGUGGGAGGGCAACAGAGGAUUGAGCAUCA"}, "B13": {"name": "chr11:16760304:16760305:+_ENSG00000110696_ENST00000422258|hu_mus|FALSE|FALSE (ssRNA)", "RNA": "GGGAGUUCUACAGUCCGACGAUCACCCCGUGCGGGUGAGACUCCCGGGCAGCACUCAUCGUAGCUGGGAUCCUGACGGGGAUAUGCCAAACACACUCGCAGUUCUCCUCAAACGCGACACCAGCAGCCCUCACCCAGCCGCCGCAACAGAGGAUUGAGCAUCA"}, "B14": {"name": "chr6:40197388:40197389:+_ENSMUSG00000057716_ENSMUST00000061740|mus_mus|mus_mus_mus_hu_False|88_108 (ssRNA)", "RNA": "GGGAGUUCUACAGUCCGACGAUCGAGUUGUCAGUUUGGAUUUAUUCUCAGUUUGGGUGGGUGCUAGCCACUAAGACUGUUAUUUUGGGAUUCAUGGCCUUGAAUAUCAAGAGGGAAAGGAAGAGGAUGGAAAGAGUCAAGAGUCAACAGAGGAUUGAGCAUCA"}, "B15": {"name": "22032003_22032123_2356_3pUTR_ENSG00000154059_ENST00000284202|human|control|control (ssRNA)", "RNA": "GGGAGUUCUACAGUCCGACGAUCGAAAAAGACCUGUUUGUCCAAUUCUCUGUGCUUUCCAUGCUCUAGCACCAUCCCAAAGUUGCCUCCUAACUUCUGUUCCCUCCCUGGGAAGGGAAGUCCAGGCAAAUCUGUGAUCAGUUACAACAGAGGAUUGAGCAUCA"}, "B16": {"name": "chr3:176740097:176740098:-_ENSG00000177565_ENST00000430069|hu_mus|hu_hu_hu_mus_True|8_18 (ssRNA)", "RNA": "GGGAGUUCUACAGUCCGACGAUCUGUUUUGUAUACCACAAAAGGAGGCACUUUCAGUAUCUGCAAAAGGUGUUUAGUCCUAAAACAUACUCACCUAGAGGAUAACUCAGGAAAACAUCAAUACAAUCUAGUAUCUAUACUCCACAACAGAGGAUUGAGCAUCA"}, "B17": {"name": "chr16:94913438:94913439:+_ENSMUSG00000022897_ENSMUST00000122284|mus_hu|motif|central (ssRNA)", "RNA": "GGGAGUUCUACAGUCCGACGAUCAGGGAUGUCAUGGAGUGGUGACUGUGGCCAACCUCCAUAGAAUCUUGGGUAGAGGAGCGGUUCGUUGGAGAAUUGUAGACCCUUGGCCUGGUCCGGUUACCCAAGGCUUGUUGUCCAUGGCAACAGAGGAUUGAGCAUCA"}, "B18": {"name": "71581855_71582081_2943_CDS_ENSMUSG00000031398_ENSMUST00000004326|mouse|control|control (ssRNA)", "RNA": "GGGAGUUCUACAGUCCGACGAUCACUCACACGGUCAAAUGUAGGGGUCACAAAGCUGUAGAGUUGCUGGGACUGUGUGCGGAAGUCAGCAGAACAAUCCCCUACACAGAGCUCAGCAGGCCCAGGUGGUGGGCUGGGCACCAGCAACAGAGGAUUGAGCAUCA"}, "B19": {"name": "chr2:181380236:181380237:+_ENSMUSG00000002455_ENSMUST00000002529|mus_mus|FALSE|FALSE (ssRNA)", "RNA": "GGGAGUUCUACAGUCCGACGAUCACCAUGAUUCUUCUCAAAGUAGGCAGCUCGUAACCACACACUUUUCUUGCUGGGGAAGACUUGUAGGGCAUAGGCAUAUAUGGCUCGUGCACACUCCAGGGCAUUGUGGGCCACACAACUCAACAGAGGAUUGAGCAUCA"}, "B20": {"name": "110384628_110384748_820_3pUTR_ENSG00000138802_ENST00000265175|human|control|control (ssRNA)", "RNA": "GGGAGUUCUACAGUCCGACGAUCGAUGAGAUUGUCUUGAGUCGAUGGAAGGCCUGGAGAUGACCACGUUAGAGUACUGUAUCCUGAAAGACUUUGCUGCUGGUGGUGCUGUUGUGAUGGUAGAGGUGGAAGUGGCGAUGGAUGCAACAGAGGAUUGAGCAUCA"}, "B21": {"name": "chr3:130650941:130650942:+_ENSG00000017260_ENST00000359644|hu_hu|FALSE|FALSE (ssRNA)", "RNA": "GGGAGUUCUACAGUCCGACGAUCAAUAAGGGGAUUUUUAAACUGAGAAAUAUACUUCUUCCACAGUGGCUCAUCUUCACUAAUAUCAAACUCAUUCCAGCCAUGAAAGGCUCGCCUAUGACUAACUUCACAUUUGUUUAGACCCAACAGAGGAUUGAGCAUCA"}, "B22": {"name": "chr17:53040142:53040143:-_ENSG00000166260_ENST00000299335|hu_mus|FALSE|FALSE (ssRNA)", "RNA": "GGGAGUUCUACAGUCCGACGAUCGCUGCUUCAAUUAUAGCCUGGAACUGGCAACUUGUGCCCUUCCUUUGCUUCAAAAAAAGUGUAAGAAAGAGUGAUGAGGUCGACAUUCACCAUUCUUGGAUCUUCUGCAAAUUCAGGAUCCAACAGAGGAUUGAGCAUCA"}}, "note": "The list shows a part of the results.", "data": [{"target": "T1, UNK ZnF1-3 (human, UniProt Q9C0B0 31-174)", "T1 sequence": "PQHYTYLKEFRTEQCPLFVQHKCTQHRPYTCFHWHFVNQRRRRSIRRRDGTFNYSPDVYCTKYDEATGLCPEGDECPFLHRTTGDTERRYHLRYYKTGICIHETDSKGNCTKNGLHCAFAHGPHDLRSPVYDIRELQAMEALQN", "experiment": "nsRBNS (natural sequence RNA bind-n-seq); RBNS binding buffer (assumed for nsRBNS): 25 mM Tris pH 7.5, 150 mM KCl, 3 mM MgCl2, 0.01% Triton X-100, 500 ug/ml BSA, 20 U/ml SUPERase-In, 4 C; UNK is unkempt and MSI1 is Musashi-1; names of the RNAs are library labels; protein concentration not given here; high values mean tight binding", "units": {"binding signal": "enrichment R"}, "values": [{"binder": "B1", "binding signal": 0.675}, {"binder": "B2", "binding signal": 0.656}, {"binder": "B3", "binding signal": 1.11}, {"binder": "B4", "binding signal": 0.905}, {"binder": "B5", "binding signal": 2.28}, {"binder": "B6", "binding signal": 1.78}, {"binder": "B7", "binding signal": 0.631}, {"binder": "B8", "binding signal": 0.79}, {"binder": "B9", "binding signal": 1.52}, {"binder": "B10", "binding signal": 0.894}, {"binder": "B11", "binding signal": 1.15}, {"binder": "B12", "binding signal": 1.52}, {"binder": "B13", "binding signal": 0.761}, {"binder": "B14", "binding signal": 1.91}, {"binder": "B15", "binding signal": 0.54}, {"binder": "B16", "binding signal": 0.835}, {"binder": "B17", "binding signal": 0.58}, {"binder": "B18", "binding signal": 0.872}, {"binder": "B19", "binding signal": 1.06}, {"binder": "B20", "binding signal": 1.59}, {"binder": "B21", "binding signal": 1.16}, {"binder": "B22", "binding signal": 1.08}]}]}
